Source: the supplement of paper PMC8728848
Some of the results follow.

What was measured:
Assay in all cases: glycan array binding signal (z-score within array); higher = stronger binding
Settings in all cases: glycan notation: IUPAC condensed, linker removed
[1] = target: Gal(b1-4)GlcNAc(b1-2)[Gal(b1-4)GlcNAc(b1-6)]Man(a1-6)[GlcNAc(b1-4)][Gal(b1-4)GlcNAc(b1-2)Man(a1-3)]Man(b1-4)GlcNAc(b1-4)GlcNAc
In short: (§1)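 Negative Z-scores can be read as non-binding. The Z-score is calculated within each array and then averaged across arrays of one protein sequence at different concentrations or buffers and across linkers. Arrays, 3228 in all, were curated from the Consortium for Functional Glycomics database and kept only where the protein sequence was available.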

[2] = target: Gal(b1-4)GlcNAc(b1-2)[Gal(b1-4)GlcNAc(b1-6)]Man(a1-6)[GlcNAc(b1-4)][Gal(b1-4)GlcNAc(b1-2)[Gal(b1-4)GlcNAc(b1-4)]Man(a1-3)]Man(b1-4)GlcNAc(b1-4)[Fuc(a1-6)]GlcNAc
In short: as §1

[3] = target: Gal(b1-4)GlcNAc(b1-3)Gal(b1-3)GalNAc
In short: as §1

[4] = target: Gal(b1-4)GlcNAc(b1-3)Gal(b1-3)GlcNAc
In short: as §1

[5] = target: Gal(b1-4)GlcNAc(b1-3)Gal(b1-4)Glc
In short: as §1

[6] = target: Gal(b1-4)GlcNAc(b1-3)Gal(b1-4)GlcNAc
In short: as §1

[7] = target: Gal(b1-4)GlcNAc(b1-3)Gal(b1-4)GlcNAc(b1-2)Man(a1-3)[Gal(b1-4)GlcNAc(b1-3)Gal(b1-4)GlcNAc(b1-2)Man(a1-6)]Man(b1-4)GlcNAc(b1-4)GlcNAc
In short: as §1

[8] = target: Gal(b1-4)GlcNAc(b1-3)Gal(b1-4)GlcNAc(b1-2)Man(a1-3)[Gal(b1-4)GlcNAc(b1-3)Gal(b1-4)GlcNAc(b1-2)Man(a1-6)]Man(b1-4)GlcNAc(b1-4)[Fuc(a1-6)]GlcNAc
In short: as §1

[9] = target: Gal(b1-4)GlcNAc(b1-3)Gal(b1-4)GlcNAc(b1-2)[Gal(b1-4)GlcNAc(b1-3)Gal(b1-4)GlcNAc(b1-6)]Man(a1-6)[Gal(b1-4)GlcNAc(b1-3)Gal(b1-4)GlcNAc(b1-2)Man(a1-3)]Man(b1-4)GlcNAc(b1-4)GlcNAc
In short: as §1

[10] = target: Gal(b1-4)GlcNAc(b1-3)Gal(b1-4)GlcNAc(b1-2)[Gal(b1-4)GlcNAc(b1-3)Gal(b1-4)GlcNAc(b1-6)]Man(a1-6)[Gal(b1-4)GlcNAc(b1-3)Gal(b1-4)GlcNAc(b1-2)Man(a1-3)]Man(b1-4)GlcNAc(b1-4)[Fuc(a1-6)]GlcNAc
In short: as §1

[11] = target: Gal(b1-4)GlcNAc(b1-3)Gal(b1-4)GlcNAc(b1-3)Gal(b1-4)GlcNAc
In short: as §1

[12] = target: Gal(b1-4)GlcNAc(b1-3)Gal(b1-4)GlcNAc(b1-3)Gal(b1-4)GlcNAc(b1-2)Man(a1-3)[Gal(b1-4)GlcNAc(b1-3)Gal(b1-4)GlcNAc(b1-3)Gal(b1-4)GlcNAc(b1-2)Man(a1-6)]Man(b1-4)GlcNAc(b1-4)GlcNAc
In short: as §1

[13] = target: Gal(b1-4)GlcNAc(b1-3)Gal(b1-4)GlcNAc(b1-3)Gal(b1-4)GlcNAc(b1-2)Man(a1-3)[Gal(b1-4)GlcNAc(b1-3)Gal(b1-4)GlcNAc(b1-3)Gal(b1-4)GlcNAc(b1-2)Man(a1-6)]Man(b1-4)GlcNAc(b1-4)[Fuc(a1-6)]GlcNAc
In short: as §1

[14] = target: Gal(b1-4)GlcNAc(b1-3)Gal(b1-4)GlcNAc(b1-3)Gal(b1-4)GlcNAc(b1-2)[Gal(b1-4)GlcNAc(b1-3)Gal(b1-4)GlcNAc(b1-3)Gal(b1-4)GlcNAc(b1-6)]Man(a1-6)[Gal(b1-4)GlcNAc(b1-3)Gal(b1-4)GlcNAc(b1-3)Gal(b1-4)GlcNAc(b1-2)Man(a1-3)]Man(b1-4)GlcNAc(b1-4)[Fuc(a1-6)]GlcNAc
In short: as §1

[15] = target: Gal(b1-4)GlcNAc(b1-3)Gal(b1-4)GlcNAc(b1-3)Gal(b1-4)GlcNAc(b1-3)Gal(b1-4)GlcNAc(b1-2)Man(a1-3)[Gal(b1-4)GlcNAc(b1-3)Gal(b1-4)GlcNAc(b1-3)Gal(b1-4)GlcNAc(b1-3)Gal(b1-4)GlcNAc(b1-2)Man(a1-6)]Man(b1-4)GlcNAc(b1-4)GlcNAc
In short: as §1

[16] = target: Gal(b1-4)GlcNAc(b1-3)Gal(b1-4)GlcNAc(b1-3)Gal(b1-4)GlcNAc(b1-3)Gal(b1-4)GlcNAc(b1-2)Man(a1-3)[Gal(b1-4)GlcNAc(b1-3)Gal(b1-4)GlcNAc(b1-3)Gal(b1-4)GlcNAc(b1-3)Gal(b1-4)GlcNAc(b1-2)Man(a1-6)]Man(b1-4)GlcNAc(b1-4)[Fuc(a1-6)]GlcNAc
In short: as §1

[17] = target: Gal(b1-4)GlcNAc(b1-3)Gal(b1-4)GlcNAc(b1-3)Gal(b1-4)GlcNAc(b1-3)Gal(b1-4)GlcNAc(b1-2)[Gal(b1-4)GlcNAc(b1-3)Gal(b1-4)GlcNAc(b1-3)Gal(b1-4)GlcNAc(b1-3)Gal(b1-4)GlcNAc(b1-6)]Man(a1-6)[Gal(b1-4)GlcNAc(b1-3)Gal(b1-4)GlcNAc(b1-3)Gal(b1-4)GlcNAc(b1-3)Gal(b1-4)GlcNAc(b1-2)Man(a1-3)]Man(b1-4)GlcNAc(b1-4)[Fuc(a1-6)]GlcNAc
In short: as §1

[18] = target: Gal(b1-4)GlcNAc(b1-3)Gal(b1-4)GlcNAc(b1-3)Gal(b1-4)GlcNAc(b1-3)Gal(b1-4)GlcNAc(b1-3)Gal(b1-4)GlcNAc(b1-2)Man(a1-3)[Gal(b1-4)GlcNAc(b1-3)Gal(b1-4)GlcNAc(b1-3)Gal(b1-4)GlcNAc(b1-3)Gal(b1-4)GlcNAc(b1-3)Gal(b1-4)GlcNAc(b1-2)Man(a1-6)]Man(b1-4)GlcNAc(b1-4)GlcNAc
In short: as §1

[19] = target: Gal(b1-4)GlcNAc(b1-3)Gal(b1-4)GlcNAc(b1-3)Gal(b1-4)GlcNAc(b1-3)Gal(b1-4)GlcNAc(b1-3)Gal(b1-4)GlcNAc(b1-2)Man(a1-3)[Gal(b1-4)GlcNAc(b1-3)Gal(b1-4)GlcNAc(b1-3)Gal(b1-4)GlcNAc(b1-3)Gal(b1-4)GlcNAc(b1-3)Gal(b1-4)GlcNAc(b1-2)Man(a1-6)]Man(b1-4)GlcNAc(b1-4)[Fuc(a1-6)]GlcNAc
In short: as §1

[20] = target: Gal(b1-4)GlcNAc(b1-3)Gal(b1-4)GlcNAc(b1-3)Gal(b1-4)GlcNAc(b1-3)Gal(b1-4)GlcNAc(b1-3)Gal(b1-4)GlcNAc(b1-2)[Gal(b1-4)GlcNAc(b1-3)Gal(b1-4)GlcNAc(b1-3)Gal(b1-4)GlcNAc(b1-3)Gal(b1-4)GlcNAc(b1-3)Gal(b1-4)GlcNAc(b1-6)]Man(a1-6)[Gal(b1-4)GlcNAc(b1-3)Gal(b1-4)GlcNAc(b1-3)Gal(b1-4)GlcNAc(b1-3)Gal(b1-4)GlcNAc(b1-3)Gal(b1-4)GlcNAc(b1-2)Man(a1-3)]Man(b1-4)GlcNAc(b1-4)[Fuc(a1-6)]GlcNAc
In short: as §1

[21] = target: Gal(b1-4)GlcNAc(b1-3)Gal(b1-4)GlcNAc(b1-3)Gal(b1-4)GlcNAc(b1-3)Gal(b1-4)GlcNAc(b1-3)Gal(b1-4)GlcNAc(b1-3)Gal(b1-4)GlcNAc(b1-2)Man(a1-3)[Gal(b1-4)GlcNAc(b1-3)Gal(b1-4)GlcNAc(b1-3)Gal(b1-4)GlcNAc(b1-3)Gal(b1-4)GlcNAc(b1-3)Gal(b1-4)GlcNAc(b1-3)Gal(b1-4)GlcNAc(b1-2)Man(a1-6)]Man(b1-4)GlcNAc(b1-4)GlcNAc
In short: as §1

[22] = target: Gal(b1-4)GlcNAc(b1-3)Gal(b1-4)GlcNAc(b1-3)GalNAc
In short: as §1

[23] = target: Gal(b1-4)GlcNAc(b1-3)Gal(b1-4)GlcNAc(b1-3)[Gal(b1-4)GlcNAc(b1-3)Gal(b1-4)GlcNAc(b1-6)]GalNAc
In short: as §1

B1: Cohesin-hMARCO (Homo sapiens) (protein)
chain: LDDLDAVRIKVDTVNAKPGDTVRIPVRFSGIPSKGIANCDFVYSYDPNVLEIIEIEPGDIIVDPNPDKSFDTAVYPDRKIIVFLFAEDSGTGAYAITKDGVFATIVAKVKEGAPNGLSVIKFVEVGGFANNDLVEQKTQFFDGGANVGDTTEPATPTTPVTTPTTTDDLDAASVRIVGSSNRGRAEVYYSGTWGTICDDEWQNSDAIVFCRMLGYSKGRALYKVGAGTGQIWLDNVQCRGTESTLWSCTKNSWGHHDCSHEEDAGVECSVHHHHHH
Question: B1 was tested. Which “glycan array binding signal (z-score)” value [1] did it give?
Answer: -0.395

Question: What about the “glycan array binding signal (z-score)” value [2] of the same binder?
Answer: -0.487

Question: And the “glycan array binding signal (z-score)” value [3]?
Answer: -0.248

Question: What about the “glycan array binding signal (z-score)” value [4] of the same binder?
Answer: -0.462

Question: And the “glycan array binding signal (z-score)” value [5]?
Answer: -0.283

Question: What about the “glycan array binding signal (z-score)” value [6] of the same binder?
Answer: 0.118

Question: And the “glycan array binding signal (z-score)” value [7]?
Answer: 1.43

Question: What about the “glycan array binding signal (z-score)” value [8] of the same binder?
Answer: 0.29

Question: What about the “glycan array binding signal (z-score)” value [9] of the same binder?
Answer: 1.01

Question: And the “glycan array binding signal (z-score)” value [10]?
Answer: -0.105

Question: And the “glycan array binding signal (z-score)” value [11]?
Answer: -0.337

Question: And the “glycan array binding signal (z-score)” value [12]?
Answer: 0.365

Question: What about the “glycan array binding signal (z-score)” value [13] of the same binder?
Answer: 0.198

Question: And the “glycan array binding signal (z-score)” value [14]?
Answer: 0.329

Question: What about the “glycan array binding signal (z-score)” value [15] of the same binder?
Answer: 0.272

Question: And the “glycan array binding signal (z-score)” value [16]?
Answer: 0.123

Question: And the “glycan array binding signal (z-score)” value [17]?
Answer: -0.11

Question: What about the “glycan array binding signal (z-score)” value [18] of the same binder?
Answer: -0.199

Question: And the “glycan array binding signal (z-score)” value [19]?
Answer: -0.04

Question: And the “glycan array binding signal (z-score)” value [20]?
Answer: 0.985

Question: What about the “glycan array binding signal (z-score)” value [21] of the same binder?
Answer: 0.192

Question: And the “glycan array binding signal (z-score)” value [22]?
Answer: -0.386

Question: What about the “glycan array binding signal (z-score)” value [23] of the same binder?
Answer: -0.089
